Here are results for 24 sequences from the supplement of paper PMC11417369.

The list shows a part of the results.

The test relates to PfHDP1 homeodomain (GST-tagged). The experiment in a line: gcPBM binding intensity (ln(normalized median fluorescence intensity)); higher = stronger DNA binding. In a few lines: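 Alexa488 anti-GST antibody, scanned at 488 nm, detected GST-tagged P. falciparum DNA-binding domains that had been expressed in E. coli and incubated for 1 h on an Agilent 4 × 180k array. The array carried primer-extended double-stranded 36-bp intergenic genomic probes and negative controls. Binding intensity is the highest Masliner-normalised natural-log median intensity across replicate spots of either orientation of each probe.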
Consider “TTGTGTGTATGTATACATATATATATTGAGACGAAT [TGCATGCA_negctrl_site382]”, for which the “gcPBM binding intensity (ln)” value amounted to 7.29. Regarding “TTTCCATTATGATATAGTACATAAATATATGTAATA [XGTACX_site6992]”, the “gcPBM binding intensity (ln)” value came out at 6.2. Take “GGAGAATAGTGGAAAACACACACGTTTGAGATATGG [CACACA_site1168]”: the “gcPBM binding intensity (ln)” value was 6.53.

For the sequence “CAAAAACGGAAGTGGTGTACCGATATTATATAAACA [XGTACX_site4962]”, the “gcPBM binding intensity (ln)” value was 6.61.

For the sequence “TTTTTTTTTTTTACCTGTACATGTCAGCAAACTTTT [XGTACX_site1171]”, the “gcPBM binding intensity (ln)” value stood at 6.55. Turning to “AACATTATAAGACACACACACACATATATATATATA [CACACA_site8259]”, the “gcPBM binding intensity (ln)” value turned out to be 9.19.

As to “ACTCTTAAAATGTATTGTACATAATTTTTACAAGGG [XGTACX_site6611]”, the “gcPBM binding intensity (ln)” value stood at 6.82. The result for “AGGTAGTTCTGTATCACACACATATATATATATATA [CACACA_site2214]” reads 9.41; that for “AATTGTAAATTGGGCACTTATAAAAATGAACAAATA [CACACA_negctrl_site1583]”, 6.79. Turning to “TCATAAAGAACAAAGTGTACCTATATATTACATACA [XGTACX_site7595]”, the “gcPBM binding intensity (ln)” value came out at 6.29. The result for “TATAAAACCCTACTGTTTCTTCTTTATTGATATATT [TGCATGCA_negctrl_site285]” reads 6.28; that for “GAAAGAATAAAATAAACATGCAAATAAAACATAAAA [TGCATGCA_site471]”, 7. With “AAAGTTTTTATACATACACACCTATAAATTAAGTGC [CACACA_site7198]”, the “gcPBM binding intensity (ln)” value was found to be 6.37. For “TATGTCAATTTTCATACATGCGCATAATCTTTATTT [TGCATGCA_site807]”, the “gcPBM binding intensity (ln)” value was determined as 7.53.

“ATAAATAAGATACGTACACACATATACAAAATATAC [CACACA_site3661]”: the “gcPBM binding intensity (ln)” value was determined as 6.76.

With “TACTATCTATACAATACACACAAAAAAAAAAAAATA [CACACA_site3981]”, the “gcPBM binding intensity (ln)” value is 6.43.

Turning to “TTATTATCCTATATTTCTTTTCCTTCTTCAAAATTA [CACACA_negctrl_site1314]”, the “gcPBM binding intensity (ln)” value was determined as 6.19.

Take “TAAATACACTGTAGCGCACACGGCCAAAAAAAAAAA [CACACA_site1818]”: the “gcPBM binding intensity (ln)” value was found to be 6.72. With “TAATATCATTTATATTGTACTATAACAAAATCTATA [XGTACX_site7700]”, the “gcPBM binding intensity (ln)” value was 6.02. Next, “ATATAAAATAATAAGGGTACAGGTCTCTGCGATGTT [XGTACX_site786]”: 6.14; “TAAAATATTGTTATTACATGCAACCTTATGAAAAAT [TGCATGCA_site706]”: 6.7; “ACTCGCATATTTAAATGTACTTAATTAGAAGAAAAA [XGTACX_site3304]”: 6.98. The result for “AGAATTTTAGATTTAGCACACATTTTTTTTTTTTTT [CACACA_site4081]” reads 7.01; that for “AAAAAAAAAAAAAAAAAAAAAAAAAAAAGTTAAAAA [TGCATGCA_negctrl_site74]”, 7.29.
